The chains are these.
B1: LINE1-mini (parent)
chain: GGCAGAGCUCAACACAGCGUGGCAAAGUGGCUGUGGCUAGACUGCC

Read counts are not given, so values of variants with three or more changes are uncertain.

The variants in the data set derive from B1. Kind of data set: self-cleavage, relative activity (ratio to wild type); higher = more cleavage; in vitro, sequencing; the parent is a self-cleaving ribozyme.
In the case of G2C A14U G21A, the self-cleavage worked out at 0.04. The figure for G2C A6U G21A is 0.07. The figure for G2A U9G C23A G35U A41C is 0.06. The figure for G2A G5U C8A G44U is 0.19; for G2A G5A U9C U32A it is 0.05; for G2A G5C G22U A39U U43C it is 0.02. For the variant G2C A6U G7U A14C G19U G29U, the self-cleavage is 0.07.

Regarding G2A G19U U20C U34A, the self-cleavage stood at 0.08. The same measure for G2C A6U G21U A25U G29A: 0.36. In the case of G2C A6C G27C A41G, the self-cleavage is 0.03.

On to G2A G5A U32C, for which the self-cleavage is 0.28. Regarding G2A U20C U28G G35C G44C, the self-cleavage came to 0.23. The figure for G2C A6C C13U C18A A24C G33A is 0.02. The same measure for G2A G5C G27A: 0.08; for G2A G5C A6U C15A G27A U38A: 0.12; for G2A G22C C23G: 0.8. With G2C A4G C42U, the self-cleavage came to 0.07.

For the variant G2C A12U G19C G21U G36U C37A G40A, the self-cleavage is 0.02. As for G2A U20C A24C A41G, the self-cleavage stood at 0.15. The same measure for G2A U20A G22C U28G G30U G36U C37U: 0.02; for G2C A6G C8A C15A A24G U32C C37A: 0.03; for G2A G5C C10A C45G: 0.05. The same measure for G2C A6G C18A G35U: 0.06; for G2A U9G A26C: 0.37; for G2A G21C A24G A26C C31G U34C: 0.1.

Regarding G2A U9A C15A C42A, the self-cleavage was 0.72. The figure for G2C A16G U34A U43A is 0.01; for G2C A6C A39C C42U U43G it is 0.01. The figure for G2A G5A C13A U28G U43A is 0.35; for G2A G5C C10U C13U G35U U38G it is 0.03; for G2A G5U A12C A14C G21C G44A C46U it is 0.02.

As to G2A G7U C13G G30U G40U, the self-cleavage was found to be 0.02. The figure for G2C A6C A12C G22U C23A is 0.03. As for G2C A11G C23G G36A, the self-cleavage worked out at 0.05. As to G2A G7U G29A G30A, the self-cleavage turned out to be 0.34. The figure for G2A G21U A25G G35U is 0.13; for G2A G7C U9C A11C G17U G19A G36U G44U it is 0.01; for G2A G19C G36C it is 0.06. As for G2A G33U U38C A41U, the self-cleavage is 0.16.

For the variant G2A G7A G17U C46G, the self-cleavage stood at 0.26.

Take G2A U28G U32C C46G: the self-cleavage stood at 0.04.

In the case of G2A U20G G33A G40A, the self-cleavage came out at 0.06. In the case of G2C A4G C31U U38G, the self-cleavage is 0.07. As for G2A G17U C46A, the self-cleavage was 0.1. The same measure for G2C A4G A14U C31U C46A: 0.04; for G2A G5A A24C G27U G30U: 0.23. On to G2A G7U A39U, for which the self-cleavage is 0.03. For the variant G2A U9A C45U, the self-cleavage turned out to be 0.22. Take G2C A6G C45A: the self-cleavage came to 0.05. Turning to G2A C31U G35U A41U, the self-cleavage worked out at 0.02. With G2A U9G G35A, the self-cleavage worked out at 0.17. The figure for G2A U9G G35U is 0.13; for G2A G7U C8A G40U it is 0.52; for G2A U38G G40U it is 0.17. As to G2C A24C C31G U32C, the self-cleavage came to 0.01. Turning to G2C A11U U20A C46A, the self-cleavage worked out at 0.01. The figure for G2A U20A G21U is 0.36. The figure for G2A G27A G36C A41G is 0.52; for G2C A6G C10A C13U A14C G27U it is 0.03.

In the case of G2A G17C G19U U32C, the self-cleavage worked out at 0.05. The figure for G2A G5U A11C is 0.04; for G2C A14U G27C C42U it is 0.01; for G2A C42A C45U it is 1.73. With G2A U28C G36A, the self-cleavage was determined as 0.13.

In the case of G2A G21U C23A G40A, the self-cleavage worked out at 0.14. As for G2A G27U G29A, the self-cleavage was determined as 1.34.

On to G2C A4C C8A G44A C45A, for which the self-cleavage was found to be 0.04. In the case of G2A G29C G30C, the self-cleavage worked out at 0.03. The figure for G2A G5C U9G C45U is 0.19; for G2A G22A C23U G36U it is 0.24; for G2C A4C A25G C45A it is 0.02. On to G2A G7A U9C U28A C31A G36C U38A, for which the self-cleavage worked out at 0. Turning to G2A G19C C37A, the self-cleavage came out at 0.09. The same measure for G2A G19U G33A: 0.18; for G2A G22C C42U: 0.45; for G2A G7A G21U: 0.34.

Consider G2C A6U A25U A26U A41C, for which the self-cleavage is 0.09. G2C A12C C15U C23A A24G A25C: the self-cleavage worked out at 0.02.

As to G2C A12U G17C, the self-cleavage was 0.03.

On to G2A G21U G30A C46U, for which the self-cleavage amounted to 1.35. The figure for G2C A12G C15A G19A C45A is 0.01. Turning to G2A U20A G22C G27C G33A, the self-cleavage came out at 0.15. The same measure for G2C A14G G17U: 0.04; for G2C A4G C10G: 0.01. The figure for G2C A4C G21C G22A G29C is 0.02. As to G2A G17C A25U U43G, the self-cleavage turned out to be 0.2.

Regarding G2C A12G G19U A24C, the self-cleavage came to 0.01. Regarding G2A G5U A26C, the self-cleavage was 0.58. The same measure for G2A G5U C13G G19U G22A U32A C46U: 0.06; for G2A U28A G35A: 0.56; for G2A G17C C18G C23A C46A: 0.03. The figure for G2A G40A C42G is 0.28; for G2C A11U A16C A25G A39G A41U it is 0. The same measure for G2C A6U G30U A41C: 0.04; for G2C A12C C23A G44C: 0.01; for G2C A16U G19A G29C: 0.04. In the case of G2A G7U C10A, the self-cleavage came to 0.04. The same measure for G2A C31A U32G: 0.25; for G2C A12C G35U: 0.04. The same measure for G2A G22U G29U U38G: 0.04; for G2C A6G U34A G36U: 0.06. For the variant G2C A6G C8U A26G G36U, the self-cleavage stood at 0.01. The same measure for G2A U28C C46A: 0.81; for G2C A11G U20A G40A: 0.02; for G2A G17U A41C: 0.02. The same measure for G2A G21C A39U: 0.43; for G2C A6C U9C A24G: 0.01. In the case of G2C A4U A6U G17U G21C C37U C42G, the self-cleavage is 0.01. The figure for G2A G5U C42U is 0.11; for G2A G29U C31G U34C G36A it is 0.2. The same measure for G2A G5U C13A G29A G30U C37G: 0.14; for G2A G7C G33A: 0.51. Take G2C A4U C46U: the self-cleavage was determined as 0.06. On to G2C A14U G21A C31U A41C, for which the self-cleavage was found to be 0.12. The same measure for G2A U20A U34C C45U: 0.33. The figure for G2A G5A A11C A24G U43G is 0.01.

With G2C A14U U34G G40U C42U, the self-cleavage is 0. The same measure for G2C A12G C37G: 0.04; for G2A G21C A26C U32G: 0.15. The same measure for G2C A11U G19C G30A G35U U43G C45A: 0; for G2A G17U U28G C46U: 0.05. Regarding G2C A11G A12G U32G, the self-cleavage was 0.03. With G2C A6C U34G C42U, the self-cleavage came to 0.14. As for G2C A12U A14G A16G C23A, the self-cleavage amounted to 0.02. The figure for G2A G7A C18G G22A G40A C45A C46G is 0.28; for G2A G5A G19A U20A C31A C46G it is 0.1; for G2C A11U G27A U34A it is 0.05. The figure for G2A U9C A12C A25C G29U is 0.02; for G2A U9A U20G G22C G35C G44C it is 0.34.

Take G2C A16C G30C G44U: the self-cleavage was determined as 0.11.

Consider G2C A14C U43G, for which the self-cleavage was 0.01.

Regarding G2A G21U G22C G35U A41U, the self-cleavage stood at 0.09. The figure for G2A G27U U38A is 0.19. The figure for G2C A4C A26C G27C U32G is 0.1; for G2A G40C G44A it is 0.14; for G2C A11G U43C C45U it is 0. In the case of G2C A11G C13A G44U C46A, the self-cleavage amounted to 0.01.

As for G2A U9G G30A C42A, the self-cleavage was 0.03. Regarding G2C A12G C15U G19U U43C G44A C45G, the self-cleavage is 0.04. Regarding G2A G22U G29C C31U, the self-cleavage was determined as 0.13. In the case of G2A G7A A41G U43C C46G, the self-cleavage was found to be 0.23. The figure for G2A U9A A24G G36A C42G C45U is 0.48. The figure for G2C A6C G40A is 0.01; for G2C A4C U28C U34A it is 0.05. G2C A6G U28G G40A: the self-cleavage was 0.04. As to G2A G27U G35U, the self-cleavage is 0.25. As for G2C A16G G36A G40C, the self-cleavage worked out at 0. The figure for G2A G7U C18U is 0.82; for G2C A14G U20C C45U it is 0.03; for G2C A12U A25U G27U U34C it is 0.03. The same measure for G2A G17U U20G C31A: 0.2. The figure for G2A G30U U38C U43A is 0.1. Regarding G2C A16U G21A, the self-cleavage is 0.07. G2A G5C A16U: the self-cleavage is 0.08.

Consider G2A G17C C31U U34G, for which the self-cleavage was 0.01. Take G2C A6U G19C: the self-cleavage amounted to 0.04. The same measure for G2A G30U C45A C46G: 0.69.

On to G2A G27A U28A G35A C42A, for which the self-cleavage came out at 0.56. Turning to G2A G17A G33C G35A, the self-cleavage was determined as 0.03. The same measure for G2C A12G A25G: 0.02; for G2A C42G C45A: 0.15; for G2A G30U G40C: 0.12. Take G2C A4C G19A G22U A24U G27A U38C A41G: the self-cleavage was 0. The same measure for G2C A6G G22U G33U U43A: 0.04; for G2A G5C A14U G27A U34A: 0.11; for G2C A4G G7U A12G U43A: 0.08. As for G2A U32A U43A, the self-cleavage came to 0.15.

(Values after the RNAGym collection of RNA variant scans (doi:10.7554/elife.90254).)
